Laboratory results as given in PubChem BioAssay AID1508642 (National Center for Advancing Translational Sciences (NCATS), 2021).
Screen size: about 43,000 compounds; about 200 (0.47%) were called active. Not shown: some 12% with an inconclusive outcome. Calls follow the shape of the dose curve; as a rule, active = well fitted cell-killing curve with a large enough effect; inconclusive = small, poorly fitted or top-dose-only effect, or effect the other way; inactive = flat fitted curve, though single readings scatter. This is one part of the list.

Assay: Cell viability qHTS assay in S16 Pmp22-F2sN cells; also: nearly all actives have a fitted effect of over 65% in size
Conditions: S16 Pmp22-F2sN Schwann cells viability, CellTiter-Glo, 24 h; series mostly up to 57.5 µM; activity change, negative = cytotoxicity: at the top concentration
Outline: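 S16 Pmp22-F2sN Schwann cells (500-1,000/well) in phenol-red-free DMEM with 10% FBS received 23 nL compound by pin tool for 24 h at 37 °C. Viability was then read as CellTiter-Glo luminescence after 15 min at room temperature.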
% is scaled to controls: 0 for no effect and ±100 for the full control effect.

Row | SMILES | activity change, negative = cytotoxicity
1 | Cc1ccc(C)c(NC(=O)C(=O)NCCCN2CCOCC2)c1 | inactive: 4.4%
2 | COc1ccc(Nc2ncc(C(=O)Nc3cccc(Cl)c3)c3ccccc23)cc1 | inactive: 7.22%
3 | Cc1ccc(OCC(=O)NCC2(N3CCN(C)CC3)CCCCC2)cc1 | inactive: -1.08%
4 | COc1ccccc1Nc1nc(C)nc(N)c1S(=O)(=O)c1ccccc1 | inactive: 16.8%
5 | Cc1nc2c3cccnc3nn2c(C)c1CCC(=O)NCc1ccccc1 | inactive: 6.84%
6 | CCN(CC)S(=O)(=O)c1ccc2c(c1)nc(CN(C)C(=O)Nc1ccc(C)c(Cl)c1)n2C | inactive: -2.01%
7 | Cc1ccc(C)c(NC(=O)c2cc(S(=O)(=O)NCc3ccccc3)ccc2F)c1 | inactive: -29.2%
8 | CC(C)CCNC(=O)c1cnc2sc(N3CCCCCC3)nn2c1=O | inactive: -5.61%
9 | COc1ccc(CNC(=O)c2ccc(Cn3c(=O)c4cccn4c4cccnc43)cc2)c(OC)c1 | inactive: 0.229%
10 | Cc1ccc(O)c(NC(=O)c2cc(-c3ccc(F)cc3)no2)c1 | inactive: 11.4%
11 | Cc1ccc(Cl)cc1N1CCN(C(=O)c2ccc3c(Cl)c4c(nc3c2)CCCC4)CC1 | inactive: 15.5%
12 | O=C(Cn1c(=O)ccc2cc(S(=O)(=O)N3CCCC3)ccc21)Nc1ccccc1 | inactive: 18.1%
13 | COc1cccc(-c2nc(CS(=O)(=O)CC(=O)N3CCN(c4ccccc4)CC3)c(C)o2)c1 | inactive: 1.21%
14 | CCn1cc(C(=O)NCCC(C)C)c(=O)c2cc(S(=O)(=O)N(C)C3CCCCC3)ccc21 | inactive: 1.54%
15 | CCC(=O)N1c2ccccc2CC1C(=O)NCCCN1CCN(c2ccc(OC)cc2)CC1 (configuration not stated) | inactive: 6.37%
16 | CC1CCCCN1c1cc2c(cc1F)c(=O)c(S(=O)(=O)c1ccccc1)cn2Cc1ccccc1 (configuration not stated) | inactive: -0.651%
17 | O=S(=O)(Nc1ccc(O)c(Sc2nc3ccccc3s2)c1)c1cc(Cl)ccc1Cl | inactive: 7.1%
18 | O=C(Cn1c(-c2cccs2)cc2cc(F)ccc21)NCCc1ccc(Cl)cc1 | inactive: -12.4%
19 | CCCCOc1ccc(CNC(=O)c2cnc3sc(N4CCCC4)nn3c2=O)cc1 | inactive: 7.96%
20 | COc1ccc(-c2nc(CNC(=O)Nc3ccccc3)c(C)o2)c(OC)c1 | inactive: 3.18%
21 | CCn1ccc2c(OCC(=O)Nc3ccc(OC)cc3OC)cccc2c1=O | inactive: 0.011%

Row | SMILES | activity change, negative = cytotoxicity
22 | O=c1ccc(-c2ccccc2)nn1Cc1c(F)cccc1Cl | inactive: -14.4%
23 | CCc1ccc(CNC(=O)CCn2nc(C)c3c(C)n(-c4ccccc4)nc3c2=O)cc1 | inactive: 17.5%
24 | Cc1ccc(S(=O)(=O)c2cn(Cc3ccccc3)c3cc(N4CCOCC4)c(F)cc3c2=O)cc1 | inactive: -22.9%
25 | COc1cc(NC(=O)c2noc3c2CC(C)CC3)c(OC)cc1Cl (configuration not stated) | inactive: 16.2%
26 | Cc1nn(-c2ccccc2)c2c1N(CCCC(=O)NC(C)c1ccccc1)C(=O)CS2 (configuration not stated) | inactive: 1.51%
27 | Cc1nn(-c2ccccc2)c2c1N(CC(=O)N1CCN(c3ccc(Cl)cc3)CC1)C(=O)CS2 | inactive: -1.26%
28 | Cc1cc(C)n2nc(CNC(=O)c3ccc(Cl)cc3)nc2n1 | inactive: -1.16%
29 | O=C(Nc1ccccc1)c1cccc(N2CCCS2(=O)=O)c1 | inactive: -4.33%
30 | COc1ccc(C(CC(=O)Nc2ncccc2C)N2Cc3ccccc3C2=O)cc1OC (configuration not stated) | inactive: -1.91%
31 | COc1ccc(-n2c(SCCC(C)C)nc3sc4c(c3c2=O)CC(C(C)C)OC4)cc1 (configuration not stated) | inactive: 10.3%
32 | Cc1nn(CCCC(=O)Nc2ccccc2C(F)(F)F)c(=O)c2nn(-c3ccccc3)c(C)c12 | inactive: -0.598%
33 | COc1cccc(NC(=O)Cn2c(=O)n(Cc3ccc4c(c3)OCO4)c(=O)c3oc4ccccc4c32)c1 | inactive: -10.4%
34 | Cc1ccc(-n2ncc(C(=O)NCCN3CCN(C)CC3)c2C2CCN(C(=O)OC(C)(C)C)CC2)cc1C | inactive: -8.53%
35 | COc1ccc2c(c1)c(N1CCCC1=O)c(C(=O)Nc1ccc(OC)c(Cl)c1)n2C | inactive: 4.75%
36 | CCOc1ccc(CNC(=O)Cn2c(=O)c3cccn3c3cccnc32)cc1 | inactive: 12.3%
37 | Cc1ccc(-c2noc(CNC(=O)c3ccc(C)c(Cl)c3)n2)cc1 | inactive: -16.1%
38 | CCc1ccc(OCC(=O)N(Cc2ccc(C(C)C)cc2)C2CCS(=O)(=O)C2)cc1 (configuration not stated) | inactive: -23.9%
39 | CCN(CC)C(=O)C1=C(C)Nc2nc3ccccc3n2C1c1cccc(OC)c1 (configuration not stated) | inactive: 5.17%
40 | O=C(Nc1ccccc1C(F)(F)F)c1ccc(F)c(S(=O)(=O)N2CCc3ccccc3C2)c1 | inactive: -20.1%
41 | Cc1ccc(-n2c(C)cc(/C=C(\C#N)C(=O)Nc3ccc(C)c(C)c3)c2C)cc1 | inactive: -1.23%
42 | N#Cc1ccccc1CSc1nnc(-c2ccc(Br)cc2)o1 | inactive: 5.6%

Row | SMILES | activity change, negative = cytotoxicity
43 | Cc1ccc(CNC(=O)Cn2ccn(-c3cccc(Cl)c3)c(=O)c2=O)cc1 | inactive: 5.41%
44 | O=C1CSC2(C(=O)N(Cc3cccc(C(F)(F)F)c3)c3ccccc32)N1c1ccc(F)c(F)c1 (configuration not stated) | inactive: 7.73%
45 | O=C(NCc1ccccc1Cl)c1nnc(Cc2cccc(F)c2)o1 | inactive: 6.62%
46 | Cc1ccc2oc(-c3ccc(C)c(NC(=O)/C=C/c4ccco4)c3)nc2c1 | inactive: 4.5%
47 | Cc1ccc(-c2nc(CSc3nnc(C)n4c3cc3occc34)c(C)o2)cc1 | inactive: 6.43%
48 | Cc1ccc(NC(=O)CN(Cc2ccccc2)S(=O)(=O)c2ccc3nc(C)sc3c2)c(C)c1 | inactive: 9.72%
49 | CCCCSc1nnc2c(n1)OC(c1ccc(Br)s1)Nc1ccccc1-2 (configuration not stated) | inactive: -9.31%
50 | Cc1cc(N2CCC(C)CC2)nc2ccc(NC(=O)Cc3ccccc3Br)cc12 | inactive: 24.9%
51 | CCOc1ccc(-c2nc(-c3ccccc3)c(-c3ccccc3)[nH]2)cc1OCC | inactive: -8.14%
52 | CN(C)c1ccc(CNC(=O)CCCN2C(=O)c3cccnc3Oc3ccc(Cl)cc32)cc1 | inactive: 5.45%
53 | COc1ccc(CNC(=O)c2c(O)nc3c(C)cccn3c2=O)cc1 | inactive: -14.2%
54 | CCCCOC(=O)c1ccc(-n2nnc3c(sc4nc(C)cc(C)c43)c2=O)cc1 | inactive: 17.4%
55 | CCc1ccc(C2CC(=O)Nc3c2c(=O)n(C)c2ncnn32)cc1 (configuration not stated) | inactive: -3.56%
56 | COc1ccc(C(=O)c2cn(CC(=O)Nc3cc(C)ccc3C)c3nc(C)ccc3c2=O)cc1 | inactive: -0.858%
57 | CC(C)Oc1ccc(CNC(=O)C2=Cc3ccccc3OC2)cc1 | inactive: 3.93%
58 | CCOC(=O)N[C@H](Cc1c[nH]c2ccccc12)C(=O)Nc1cccc(Cl)c1 | inactive: -0.604%
59 | NC(=O)C1CCN(c2csc3ccc(F)cc3c2=O)CC1 | inactive: -5.72%
60 | COc1ccc(N2CCN(C(CNC(=O)c3ccc(OC)c(OC)c3)c3cccnc3)CC2)cc1 (configuration not stated) | inactive: 3.28%
61 | CCc1ccc(CNC(=O)C2CCN(c3nn4cc(-c5ccc(OC)cc5)nc4s3)CC2)cc1 | inactive: 7.23%
62 | COc1ccc(C2=NC(c3ccccc3)=Nc3ccc(C)cc3N2)cc1 | inactive: -14.6%
